{"source": "PubChem BioAssay AID485360", "about": "(National Center for Advancing Translational Sciences (NCATS), 2010)", "note": "Out of some 230,000 compounds screened, about 1,500 (0.65%) were called active. Inconclusive means that the source gave no clear call. Such entries were picked first, then a sample of the others. The call rests on the fitted dose curve; in most records, active means well fitted inhibition curve with a large enough effect; inconclusive means small, poorly fitted or top-dose-only effect; inactive means no such curve, though single readings can be large or run the other way. Where the call is inconclusive, the potency comes from a doubtful curve fit. On the % scale 0 is the no-effect control and ±100 the full control effect; potency means the concentration at half of the fitted maximal effect; tags describe the fitted curve by direction and shape."}
{"target": "Lethal(3)malignant brain tumor-like protein 1 (Homo sapiens) (UniProt Q9Y468)", "sequence (Q9Y468 whole entry, looked up)": "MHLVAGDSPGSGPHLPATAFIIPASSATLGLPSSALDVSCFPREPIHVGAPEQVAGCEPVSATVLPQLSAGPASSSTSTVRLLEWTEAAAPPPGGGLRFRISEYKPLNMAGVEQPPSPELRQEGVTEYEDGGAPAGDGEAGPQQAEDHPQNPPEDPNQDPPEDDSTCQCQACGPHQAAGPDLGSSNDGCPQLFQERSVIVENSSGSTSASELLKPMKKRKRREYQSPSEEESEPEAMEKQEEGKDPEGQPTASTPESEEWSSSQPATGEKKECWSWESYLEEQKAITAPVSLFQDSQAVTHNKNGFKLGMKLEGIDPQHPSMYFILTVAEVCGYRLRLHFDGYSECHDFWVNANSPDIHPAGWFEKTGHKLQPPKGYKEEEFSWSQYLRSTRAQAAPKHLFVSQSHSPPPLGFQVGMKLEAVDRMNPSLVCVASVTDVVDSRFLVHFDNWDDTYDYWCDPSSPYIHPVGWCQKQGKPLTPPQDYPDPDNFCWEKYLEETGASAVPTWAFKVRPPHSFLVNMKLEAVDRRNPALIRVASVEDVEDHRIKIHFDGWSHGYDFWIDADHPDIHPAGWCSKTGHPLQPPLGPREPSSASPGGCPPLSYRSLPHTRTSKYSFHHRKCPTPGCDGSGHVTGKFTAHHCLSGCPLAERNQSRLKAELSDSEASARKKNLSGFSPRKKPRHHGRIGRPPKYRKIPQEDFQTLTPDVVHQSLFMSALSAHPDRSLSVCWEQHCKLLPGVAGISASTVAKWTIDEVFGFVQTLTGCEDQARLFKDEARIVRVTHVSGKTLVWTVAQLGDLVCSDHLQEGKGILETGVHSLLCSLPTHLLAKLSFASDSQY", "experiment": "qHTS Assay for the Inhibitors of L3MBTL1; further: nearly all actives have a fitted effect of over 60% in size", "conditions": "AlphaScreen L3MBTL1–H3K9me1 peptide binding; activity, negative = inhibition: at 57.1 µM (top of the series)", "in_short": "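L3MBTL1 50 nM + b-AHA-H3(1-15)K9me1 75 nM, 30 min RT; compound added, 30 min RT; streptavidin donor/Ni-chelate acceptor beads 10 ug/mL each final, 30 min RT dark; AlphaScreen read.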"}
{"smiles": "S=C(c1ccccc1)N(c1ccccc1)c1ccccc1", "Potency": "inconclusive: 39.8 µM [inhibitor, single point]"}
{"smiles": "Cc1cccc(C)c1N=Nc1c(C)cc(O)cc1C", "activity, negative = inhibition": "inactive: -27.5%"}
{"smiles": "O=C(CSc1nc2ccccc2c(=O)n1Cc1ccco1)NCc1ccco1", "Potency": "inconclusive: 31.6 µM [inhibitor, single point]"}
{"smiles": "Cc1cccc(Cn2c(C)nc3c(N)c(C)c(C)cc32)c1", "Potency": "inconclusive: 10 µM [inhibitor, full curve, poor fit]"}
{"smiles": "CCCC[C@@H]1CNC(=S)N1CCC12CC3CC(CC(C3)C1)C2", "activity, negative = inhibition": "inactive: 4.69%"}
{"smiles": "O=C(Cn1cnc2c(cnn2-c2ccc(F)cc2)c1=O)NCCc1ccccc1", "Potency": "inconclusive: 3.98 µM [inhibitor, full curve, poor fit]"}
{"smiles": "Fc1ccc(CN2CCN(c3ncccn3)CC2)c(F)c1", "activity, negative = inhibition": "inactive: -0.967%"}
{"smiles": "O=C(CCCc1ccccc1)N1CCN(C2CCCCC2)CC1", "activity, negative = inhibition": "inactive: -2.34%"}
{"smiles": "COc1ccc(/C=C/C(=O)c2cc(Cl)ccc2O)c(OC)c1", "Potency": "inconclusive: 14.1 µM [inhibitor, partial curve]"}
{"smiles": "COc1ccc(C(=O)NC(=O)COC(=O)c2ccc3ncsc3c2)cc1", "Potency": "inconclusive: 25.1 µM [inhibitor, single point]"}
{"smiles": "CCC1C(=O)N=C(SCC(=O)Nc2ccccc2)NC1=O", "note": "(stereo not given)", "Potency": "inconclusive: 8.91 µM [inhibitor, single point]"}
{"smiles": "COc1ccc(CNC(=O)COC(=O)c2ccc(S(=O)(=O)NCc3ccco3)cc2)cc1", "Potency": "inconclusive: 39.8 µM [inhibitor, single point]"}
{"smiles": "O=C(Nc1ncccc1O)c1cccc(S(=O)(=O)N2CCN(c3ccc(F)cc3)CC2)c1", "activity, negative = inhibition": "inactive: -17.3%"}
{"smiles": "COc1cccc(NC(=O)CN(C)CC(=O)NCC(=O)Nc2ccc(F)cc2)c1", "Potency": "inconclusive: 0.631 µM [inhibitor, partial curve, poor fit]"}
{"smiles": "O=C(Nc1ccc(F)cc1)C(=O)C1C(=O)Nc2ccccc21", "note": "(stereo not given)", "activity, negative = inhibition": "inactive: 10.3%"}
{"smiles": "COc1cnn(-c2ccc(F)cc2)c(=O)c1Br", "Potency": "inconclusive: 0.112 µM [inhibitor, full curve, poor fit]"}
{"smiles": "Nn1c(-c2ccccc2)cc(-c2ccccc2)cc1=O", "Potency": "inconclusive: 7.08 µM [inhibitor, single point]"}
{"smiles": "CC(C)(C)NC(=O)CN(Cc1cccs1)C(=O)CCN1CCc2ccccc21", "Potency": "inconclusive: 17.8 µM [inhibitor, single point]"}
{"smiles": "COc1ccc(NC(=O)c2c(N)no[n+]2[O-])cc1", "activity, negative = inhibition": "inactive: 6.25%"}
{"smiles": "COCCCn1c(=N)c(C(=O)NC2CCCCC2)cc2c(=O)n3ccccc3nc21", "Potency": "inconclusive: 22.4 µM [inhibitor, partial curve, poor fit]"}
{"smiles": "O=C1CS/C(=N\\N=C\\c2ccco2)N1c1ccccc1", "activity, negative = inhibition": "inactive: -26.2%"}
{"smiles": "COC(=O)c1c(N)sc2c1CC(C)(C)OC2", "activity, negative = inhibition": "inactive: -17.1%"}
{"smiles": "CC1Cc2ccccc2N1C(=O)COC(=O)c1ccc([N+](=O)[O-])o1", "note": "(stereo not given)", "Potency": "inconclusive: 7.94 µM [inhibitor, single point]"}
{"smiles": "Cc1ccc(-c2nc3cc(N)ccc3o2)cc1", "Potency": "inconclusive: 6.31 µM [inhibitor, single point]"}
{"smiles": "CC(=O)c1c(O)cc(C)n(-c2ccc(F)cc2)c1=O", "Potency": "inconclusive: 39.8 µM [inhibitor, single point]"}
{"smiles": "O=C1CC(c2ccccc2)=NN1c1ccc([N+](=O)[O-])cc1", "Potency": "inconclusive: 17.8 µM [inhibitor, single point]"}
{"smiles": "Cc1occc1C(=O)N/N=C/c1ccc(Cl)c([N+](=O)[O-])c1", "Potency": "inconclusive: 35.5 µM [inhibitor, single point]"}
{"smiles": "CCOC(=O)Cc1csc(SCC(=O)NC2CCC(C)CC2)n1", "note": "(stereo not given)", "activity, negative = inhibition": "inactive: 2.24%"}
{"smiles": "CCN1CCN(CCC(=O)Nc2ccc(Br)cc2)CC1", "Potency": "inconclusive: 0.141 µM [inhibitor, full curve, poor fit]"}
{"smiles": "CCN(C(=O)CSc1nc2ccccc2c(=O)n1-c1ccc(C)cc1)C1CCS(=O)(=O)C1", "note": "(stereo not given)", "Potency": "inconclusive: 7.08 µM [inhibitor, single point]"}
{"smiles": "O=C(CSc1n[nH]c(-c2ccccc2)n1)NC(=O)NCc1ccco1", "Potency": "inconclusive: 25.1 µM [inhibitor, single point]"}
{"smiles": "COc1ccc(CNC(=O)Cc2nn(C)c(=O)c3ccccc23)cc1", "activity, negative = inhibition": "inactive: 0.382%"}
{"smiles": "CC(C)NC(=S)N=Nc1c(O)[nH]c2ccc([N+](=O)[O-])cc12", "Potency": "inconclusive: 1.26 µM [inhibitor, full curve, poor fit]"}
{"smiles": "Cc1ccc(S(=O)(=O)c2nc(-c3ccccc3)oc2NCCN2CCOCC2)cc1", "activity, negative = inhibition": "inactive: 0.692%"}
{"smiles": "c1ccc(-c2nc(NCc3ccco3)c3ccccc3n2)nc1", "Potency": "inconclusive: 10 µM [inhibitor, partial curve]"}
{"smiles": "CC(C)c1ccc(NC(=O)c2cccnc2)cc1", "activity, negative = inhibition": "inactive: -1.55%"}
{"smiles": "O=C(CNC(=S)N(Cc1ccccc1)Cc1ccccc1F)NCCc1ccc(Cl)cc1", "Potency": "inconclusive: 1 µM [inhibitor, full curve]"}
{"smiles": "COc1ccc(C(=O)c2ccc(OC)c(OC)c2)cc1OC", "activity, negative = inhibition": "inactive: -3.49%"}
{"smiles": "Cc1cccc(/N=C/c2c(O)cc(C)oc2=O)n1", "Potency": "inconclusive: 31.6 µM [inhibitor, partial curve]"}
{"smiles": "Cc1ccc2[nH]c3c(c2c1)CN(C)CC3", "Potency": "inconclusive: 39.8 µM [inhibitor, single point]"}
{"smiles": "CCOC(=O)/C=C(\\C)N1N=C(c2ccccc2)CC1c1ccccc1", "note": "(stereo not given)", "Potency": "inconclusive: 1 µM [inhibitor, full curve]"}
{"smiles": "COc1ccc(N2CCN(CC(O)COCCOc3ccc(Br)cc3)CC2)cc1", "note": "(stereo not given)", "Potency": "inconclusive: 15.8 µM [inhibitor, partial curve]"}
{"smiles": "O=c1[nH]n2c(=O)c3c([nH]c2c1N=Nc1ccccc1)CCC3", "Potency": "inconclusive: 28.2 µM [inhibitor, partial curve]"}
{"smiles": "Cc1cc(C)cc(OCC(=O)OCC(=O)N2CC(=O)Nc3ccccc32)c1", "Potency": "inconclusive: 3.16 µM [inhibitor, partial curve]"}
{"smiles": "COc1cc2nc(C3CCC3)nc(N3CCN(c4ccccc4OC)CC3)c2cc1OC", "Potency": "active: 28.2 µM"}
{"smiles": "O=C(c1cccc(C(=O)N2CCN(Cc3ccccc3)CC2)c1)N1CCN(Cc2ccccc2)CC1", "Potency": "inconclusive: 3.55 µM [inhibitor, single point]"}
{"smiles": "CC(=O)NC(C)c1cc(F)c2cccnc2c1O", "note": "(stereo not given)", "Potency": "inconclusive: 25.1 µM [inhibitor, single point]"}
{"smiles": "Cc1c(NC(=O)CSc2ccccc2Cl)c(=O)n(-c2ccccc2)n1C", "Potency": "inconclusive: 10 µM [inhibitor, full curve]"}
{"smiles": "O=C(Nc1ncc(Cc2cccc(Cl)c2)s1)c1ccc([N+](=O)[O-])cc1", "activity, negative = inhibition": "inactive: 3.84%"}
{"smiles": "CCOC(=O)CC(NC(=O)c1cc2cc(Cl)cc(Cl)c2oc1=O)c1cccc([N+](=O)[O-])c1", "note": "(stereo not given)", "Potency": "inconclusive: 25.1 µM [inhibitor, single point]"}
{"smiles": "CN(C)c1ccc(NC(=S)c2ccccn2)cc1", "Potency": "active: 31.6 µM"}
{"smiles": "Cc1ccc(SCc2cc(=O)n(C)[nH]2)cc1", "Potency": "inconclusive: 0.794 µM [inhibitor, full curve, poor fit]"}
{"smiles": "CC1=CC(C)(C)Nc2ccc(OS(=O)(=O)c3ccc(C)cc3)cc21", "Potency": "inconclusive: 15.8 µM [inhibitor, partial curve]"}
{"smiles": "CN(C)CC(=O)Nc1ccc(Oc2ccc(Cl)cc2)cc1", "Potency": "inconclusive: 25.1 µM [inhibitor, single point]"}
{"smiles": "O=C(COC(=O)c1cc(-c2cccs2)nc2ccccc12)NCc1ccco1", "Potency": "inconclusive: 25.1 µM [inhibitor, partial curve]"}
{"smiles": "CCC(CO)n1cnnc1-c1ccncc1", "note": "(stereo not given)", "Potency": "inconclusive: 6.31 µM [inhibitor, single point]"}
{"smiles": "Oc1ccc(NC(=S)Nc2ccc(O)cc2)cc1", "Potency": "inconclusive: 39.8 µM [inhibitor, partial curve]"}
{"smiles": "Cc1cc(C)c2nc(NNC(=O)c3ccc(S(=O)(=O)N4CC(C)CC(C)C4)cc3)sc2c1", "note": "(stereo not given)", "Potency": "inconclusive: 14.1 µM [inhibitor, partial curve]"}
{"smiles": "C/C(=N\\OCc1nc2ccccc2c(=O)n1/N=C/c1cc(C)cc([N+](=O)[O-])c1O)c1ccccc1", "Potency": "inconclusive: 3.16 µM [inhibitor, full curve, poor fit]"}
{"smiles": "COc1cc(C(=O)NCC2(c3ccccc3)CCCC2)cc(OC)c1OC", "Potency": "inconclusive: 3.16 µM [inhibitor, partial curve]"}
{"smiles": "CC(=O)C1=NN(c2ccc(Cl)cc2)C(c2ccc3c(c2)OCO3)N(C(C)=O)N1C", "note": "(stereo not given)", "Potency": "inconclusive: 17.8 µM [inhibitor, partial curve]"}
{"smiles": "CC(=O)NC(=S)Nc1cccc2c(C)cc(C)nc12", "Potency": "inconclusive: 7.08 µM [inhibitor, full curve]"}
{"smiles": "COc1ccc(S(=O)(=O)N2CCN(C)CC2)c(C)c1", "Potency": "inconclusive: 6.31 µM [inhibitor, single point]"}
{"smiles": "Cc1ccc(-c2ccc(/C=N/n3cnnc3)o2)cc1", "Potency": "inconclusive: 25.1 µM [inhibitor, partial curve]"}
{"smiles": "CC(=O)c1c(C)[nH]c(C(=O)NCCCN2CCCC2)c1C", "Potency": "inconclusive: 25.1 µM [inhibitor, partial curve]"}
{"smiles": "O=C(CC1Sc2ncnn2C1=O)Nc1ccc(Cl)cc1", "note": "(stereo not given)", "activity, negative = inhibition": "inactive: -4.21%"}
{"smiles": "Brc1ccc(C=Nc2ccc(Nc3ccccc3)cc2)s1", "Potency": "inconclusive: 25.1 µM [inhibitor, single point]"}
{"smiles": "COCCOC(=O)C1=C(C)NC2=C(C(=O)CCC2)C1c1ccc(N(C)C)cc1", "note": "(stereo not given)", "activity, negative = inhibition": "inactive: -0.149%"}
{"smiles": "COc1ccccc1-c1nc(C#N)c(N2CCC(Cc3ccccc3)CC2)o1", "Potency": "inconclusive: 5.01 µM [inhibitor, partial curve]"}
{"smiles": "COc1cc(/C=C2\\SC(=O)N(Cc3ccc(Cl)cc3)C2=O)cc([N+](=O)[O-])c1O", "Potency": "inconclusive: 2.51 µM [inhibitor, full curve, poor fit]"}
